# Structures can show the parent of a compound that is named as a salt. ± gives the standard deviation of the averaged measurements. In all, about 2,000 compounds were measured (“relative cell viability vs DMSO, compound + 0.2 uM CuET”: median about 1, lowest 2% from about 0.25 on). The list shows a part of the results.
# System: TE10
# Assay: relative cell viability vs DMSO, compound + 0.2 uM CuET (fraction); TE10 is an esophageal squamous carcinoma line; higher = less cytotoxic
# Details: 2 µM; co-treatment: CuET (bis(diethyldithiocarbamate)copper) 0.2 uM; 48 h
# Description: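 TE10 ESCC cells (1,000/well, 384-well plates) were treated with Selleck bioactive library compounds at 2 uM combined with 0.2 uM CuET (copper diethyldithiocarbamate) for 48 h. Viability was read by CellTiter-Glo and expressed relative to DMSO wells. Two technical replicates (A, B).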
row,SMILES,relative cell viability
1,CCCCC(C=O)NC(=O)C(CC(C)C)NC(=O)C(CC(C)C)NC(C)=O (stereo not drawn),0.305 ± 0.026
2,C[C@H]1c2cccc(O)c2C(O)=C2C(=O)[C@]3(O)C(O)=C(C(N)=O)C(=O)[C@@H](N(C)C)[C@@H]3[C@@H](O)[C@@H]21 [Doxycycline HCl],1.34 ± 0.14
3,C[C@H]1c2cccc(O)c2C(O)=C2C(=O)[C@]3(O)C(O)=C(C(N)=O)C(=O)[C@@H](N(C)C)[C@@H]3[C@@H](O)[C@@H]21 [Doxycycline Hyclate],1.31 ± 0.09
4,CCCCCCCCCCCCCCCCO [1-Hexadecanol],1.09 ± 0.14
5,CCCCOc1ccc(CC(=O)NO)cc1 [Bufexamac],1.06 ± 0.1
6,Cc1ccc(O)c([C@H](CCN(C(C)C)C(C)C)c2ccccc2)c1 [Tolterodine tartrate],1.13 ± 0.053
7,Cc1cc(C)cc(NC(=O)Cc2ccc(OC(C)(C)C(=O)O)cc2)c1 [Efaproxiral Sodium],1.12 ± 0.078
8,O=S(=O)(O)CCSSCCS(=O)(=O)O [Dimesna],1.08 ± 0.07
9,CO[C@H]1C(=O)[C@]2(C)[C@@H](OC)C[C@H]3OC[C@@]3(OC(C)=O)[C@H]2[C@H](OC(=O)c2ccccc2)[C@]2(O)C[C@H](OC(=O)[C@H](O)[C@@H](NC(=O)OC(C)(C)C)c3ccccc3)C(C)=C1C2(C)C [Cabazitaxel],0.727 ± 0.15
10,Cc1cc(N2CCOCC2)cc2[nH]c(-c3c(NCC(O)c4cccc(Cl)c4)cc[nH]c3=O)nc12 (stereo not drawn),0.799 ± 0.15
11,Clc1ccc(COC(Cn2ccnc2)c2ccc(Cl)cc2Cl)cc1 (stereo not drawn) [Econazole nitrate],0.78 ± 0.05
12,Clc1ccccc1C(c1ccccc1)(c1ccccc1)n1ccnc1 [Clotrimazole],0.816 ± 0.048
13,NC(=O)NO [Hydroxyurea],1.139 ± 0.003
14,CCN(CCCc1ccccc1)CCCc1ccccc1 [Alverine Citrate],1.25 ± 0.14
15,COc1cc2c(cc1OC)CN(CCc1ccc(NC(=O)c3cccc4c(=O)c5cccc(OC)c5[nH]c34)cc1)CC2,0.999 ± 0.17
16,O=C(O)c1ccc(N2C(=O)C(=Cc3ccc(-c4ccc([N+](=O)[O-])cc4)o3)C=C2c2ccccc2)cc1,1.1 ± 0.22
17,CCc1cc(/C(C)=N/OCc2ccc(C3CCCCC3)c(C(F)(F)F)c2)ccc1CN1CC(C(=O)O)C1 [BAF312 (Siponimod)],1.07 ± 0.027
18,Cc1cc(CS(=O)(=O)c2ccccc2)cc(OCc2ccc(CN3CCC[C@@H]3CO)cc2)c1,1.04 ± 0.04
19,O=C(Nc1ccc2c(O)cc(S(=O)(=O)O)cc2c1)Nc1ccc2c(O)cc(S(=O)(=O)O)cc2c1,1.04 ± 0.058
20,CC(C)(Oc1ccc(C2CC2(Cl)Cl)cc1)C(=O)O (stereo not drawn) [Ciprofibrate],1.07 ± 0.043
21,Nc1nc(Nc2ccc(S(N)(=O)=O)cc2)nn1C(=O)c1c(F)cccc1F,0.765 ± 0.074
22,NC(=O)CCCSc1nc(N)nc(-c2c(Cl)cc3c4c(cccc24)COC3)n1,0.687 ± 0.014
23,CC(C)c1onc(-c2c(Cl)cccc2Cl)c1COc1ccc(/C=C/c2cccc(C(=O)O)c2)c(Cl)c1,1 ± 0.044
24,C=CCN1CCCC1CNC(=O)c1cc2nn[nH]c2cc1OC (stereo not drawn) [Alizapride HCl],1.16 ± 0.049
25,NC(=O)[C@@H](CCC(F)(F)F)N(Cc1ccc(-c2ncon2)cc1F)S(=O)(=O)c1ccc(Cl)cc1,1.19 ± 0.079
26,COc1ccc(CNCc2cccc3ccccc23)cc1,1.12 ± 0.17

row,SMILES,relative cell viability
1,Cc1[nH]c(/C=C2\C(=O)Nc3ccc(S(=O)(=O)Cc4c(Cl)cccc4Cl)cc32)c(C)c1C(=O)N1CCC[C@@H]1CN1CCCC1,1.09 ± 0.013
2,N#CC(=C(/N)Sc1ccccc1N)/C(C#N)=C(\N)Sc1ccccc1N,1.01 ± 0.013
3,Cc1c(Cn2c(C)nc3c(C(=O)O)cc(N4CCOCC4)cc32)cccc1C(F)(F)F,0.825 ± 0.067
4,CCCCCCCCCCCCCCCC[N+](C)(C)C [Cetrimonium Bromide (CTAB)],1.02 ± 0.11
5,O=C(NCc1ccc(Oc2ccccc2)cc1)c1nc(-c2cc(Br)c(O)c(Br)c2)no1,1.04 ± 0.089
6,CCCc1nc(C(C)(C)O)c(C(=O)OCc2oc(=O)oc2C)n1Cc1ccc(-c2ccccc2-c2nnn[nH]2)cc1 [Olmesartan Medoxomil],1.06 ± 0.1
7,Cn1c(=O)c2c(ncn2CC(O)CO)n(C)c1=O (stereo not drawn) [Dyphylline],1.055 ± 0.0018
8,Nc1nccs1 [Aminothiazole],1.12 ± 0.036
9,NC(=O)c1cccnc1 [Nicotinamide (Vitamin B3)],0.992 ± 0.04
10,NCc1c[nH]c(=S)n1[C@H]1CCc2c(F)cc(F)cc2C1 [Nepicastat (SYN-117) HCl],1.21 ± 0.12
11,COc1ccc(-c2cc3c(C)nc(N)nc3n([C@H]3CC[C@H](OCCO)CC3)c2=O)cn1,0.648 ± 0.035
12,Cn1c(=O)c(F)c(Nc2ccc(I)cc2F)c2c(=O)n(C[C@@H](O)CO)cnc21,0.791 ± 0.065
13,COc1ccc(/C=C/C(=O)C2(C(=O)/C=C/c3ccc(OC)c(OC)c3)CCCCC2)cc1OC,0.238 ± 0.01
14,CC1=NN(c2ccc(C(=O)O)cc2)C(=O)C1=Cc1ccc(-c2cc(C)c(C)cc2[N+](=O)[O-])o1,0.872 ± 0.091
15,CCC(C)(C)c1ccc(CC(C)CN2C[C@@H](C)O[C@@H](C)C2)cc1 (stereo partly drawn) [Amorolfine HCl],1.04 ± 0.046
16,CCOC(=O)c1ccc(C#Cc2ccc3c(c2)C(C)(C)CCS3)nc1 [Tazarotene],1.09 ± 0.049
17,"CC(C)(C)C#Cc1cc(N(C(=O)[C@H]2CC[C@H](C)CC2)[C@H]2CC[C@H](O)CC2)c(C(=O)O)s1 [VX-222 (VCH-222, Lomibuvir)]",0.955 ± 0.024
18,CC(C)N(CCC(=O)c1ccc2ccccc2c1)Cc1ccccc1,0.1814 ± 0.0002
19,CCCNS(=O)(=O)Nc1ncnc(OCCOc2ncc(Br)cn2)c1-c1ccc(Br)cc1 [Macitentan],1.24 ± 0.077
20,Nc1ccc(S(N)(=O)=O)cc1 [Sulfanilamide],1.04 ± 0.017
21,CCN1CCC[C@H]1CNC(=O)c1cc(S(N)(=O)=O)ccc1OC [Levosulpiride],1.06 ± 0.039
22,CCOc1nc2cccc(C(=O)OC(C)OC(=O)OC3CCCCC3)c2n1Cc1ccc(-c2ccccc2-c2nn[nH]n2)cc1 (stereo not drawn) [Candesartan Cilexetil],1.05 ± 0.078
23,COc1ccccc1OCCNCC(O)COc1cccc2[nH]c3ccccc3c12 (stereo not drawn) [Carvedilol],0.735 ± 0.083
24,CC(C)c1nc(CN(C)C(=O)N[C@H](C(=O)N[C@@H](Cc2ccccc2)C[C@H](O)[C@H](Cc2ccccc2)NC(=O)OCc2cncs2)C(C)C)cs1 [Ritonavir],1.02 ± 0.012
25,COc1c(O)cc2c(c1O)[C@@H]1O[C@H](CO)[C@@H](O)[C@H](O)[C@H]1OC2=O [Bergenin],1.18 ± 0.021
26,CC(C)[C@H]1CC[C@H](C(=O)N[C@H](Cc2ccccc2)C(=O)O)CC1 [Nateglinide],1.03 ± 0.013

row,SMILES,relative cell viability
1,Nc1cccc(-c2cc3c(Oc4cccc(O)c4)ncnc3[nH]2)c1,0.976 ± 0.062
2,COc1ccc(C(C)=O)c(O)c1 [Paeonol],1.13 ± 0.088
3,COc1ccc(-n2nc(C(N)=O)c3c2C(=O)N(c2ccc(N4CCCCC4=O)cc2)CC3)cc1 [Apixaban],0.954 ± 0.031
4,C[C@@H](O)[C@H]1C(=O)N2C(C(=O)OCOC(=O)C(C)(C)C)=C(SC3CN(C4=NCCS4)C3)[C@H](C)[C@H]12 [Tebipenem Pivoxil],1 ± 0.12
5,CN[C@@H](C)C(=O)N[C@H](C(=O)N1CCC[C@H]1C(=O)N[C@H](C(=O)NCCCCCCNC(=O)[C@@H](NC(=O)[C@@H]1CCCN1C(=O)[C@@H](NC(=O)[C@H](C)NC)C1CCCCC1)C(c1ccccc1)c1ccccc1)C(c1ccccc1)c1ccccc1)C1CCCCC1,0.437 ± 0.011
6,CCCCOc1ccc(OCCCN2CCOCC2)cc1 [Pramoxine HCl],1.18 ± 0.12
7,CC1CCc2cc(F)cc3c(=O)c(C(=O)O)cn1c23 (stereo not drawn) [Flumequine],0.887 ± 0.23
8,CNC(=O)CN1CCC(Oc2cc3c(Nc4cccc(Cl)c4F)ncnc3cc2OC)CC1 [AZD8931 (Sapitinib)],1.05 ± 0.024
9,CCCS(=O)(=O)Nc1ccc(F)c(C(=O)c2c[nH]c3ncc(Cl)cc23)c1F,1.21 ± 0.063
10,Nc1nc(N)nc(-c2cc(Cl)ccc2Cl)n1 [Irsogladine],1.13 ± 0.1
11,CCN1CCCC1CNC(=O)c1cc(S(=O)(=O)CC)c(N)cc1OC (stereo not drawn) [Amisulpride],1.31 ± 0.29
12,CCc1c(C(=O)NCCc2ccc(N3CCCCC3)cc2)[nH]c2ccc(Cl)cc12,0.759 ± 0.035
13,O=C(Nc1cccc(Cl)c1)Nc1ncc(CCNc2ncnc3ccsc23)s1 [SNS-314 Mesylate],0.981 ± 0.079
14,O=C1c2ccccc2-c2n[nH]c3cccc1c23,1.301 ± 0.0075
15,O=C(c1ccc(OCCN2CCCCC2)cc1)c1c(-c2ccc(O)cc2)sc2cc(O)ccc12 [Raloxifene HCl],0.688 ± 0.22
16,CNC(=O)c1ccc(N2C(=S)N(c3cnc(C#N)c(C(F)(F)F)c3)C(=O)C23CCC3)cc1F,1.36 ± 0.22
17,CC1(C)CCCC2(C)C1CCC1(C)OC(=O)CC12 (stereo not drawn) [Sclareolide],1.05 ± 0.085
18,CC(CN1c2ccccc2Sc2ccccc21)N(C)C (stereo not drawn) [Promethazine HCl],1.09 ± 0.069
19,Fc1ccc2[nH]ccc2c1-c1nc(N2CCOCC2)c2sc(CN3CCN(CC4CC4)CC3)cc2n1,0.74 ± 0.011
20,Cc1ccc(NC(=O)Nc2cc(C(F)(F)F)ccc2F)cc1Nc1ccc2c(c1)NC(=O)/C2=C\c1ccc[nH]1,0.974 ± 0.13
21,CNC(=O)c1ccccc1Sc1ccc2c(/C=C/c3ccccn3)n[nH]c2c1 [Axitinib],0.379 ± 0.21
22,S=C=Nc1cccc(NC(=S)NCCCCNC(=S)Nc2cccc(N=C=S)c2)c1,1.2 ± 0.15
23,CCOc1cc(N2CCC(O)CC2)ccc1Nc1ncc2c(n1)N(C)c1ccccc1C(=O)N2C,0.854 ± 0.18
24,CC(C)C[C@H](NC(=O)CNC(=O)c1cc(Cl)ccc1Cl)B1OC(=O)CC(CC(=O)O)(C(=O)O)O1 (stereo partly drawn),0.818 ± 0.048
25,CCOC(=O)C1=C(C)NC(C)=C(C(=O)OC)C1c1cccc([N+](=O)[O-])c1 (stereo not drawn) [Nitrendipine],1.11 ± 0.068
26,COC1(c2sc3c(N4CCOCC4)nc(-c4cnc(N)nc4)nc3c2C)COC1,0.572 ± 0.036

# From the supplement of paper PMC10670038
